The supplement of paper PMC10126150
Sequences with one replicate were seen in a single cluster, so their values are uncertain.

Test system: ATP
Assay: switch fluorescence ratio, 500 uM ATP over buffer (Cy3 cluster intensity, sum of 5 cycles each) (fold (ratio)); higher = stronger signal-on switching upon ATP binding; sequences stand for … in TCGTCGGCAGCGTCAGATGTGTATAAGAGACAGTTTTTTTTTTTTTTTTTTTTTTTTT…TC
Conditions: aptamer strand: ATP DNA aptamer (quencher-CACCTGGGGGAGTATTGCGGAGGAAGG + anchor), 100 nM annealed; ATP concentration: 500 uM; one replicate
Method in brief: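 Clusters with intensities outside 100-1000 RFU were excluded. The remaining Cy3-labelled switching-strand clusters on a modified Illumina MiSeq flow-cell had been annealed to 100 nM quencher-labelled ATP aptamer and imaged in selection buffer, then after 15 min with 500 uM ATP at 22 °C, for five cycles separated by NaOH stripping and re-annealing. The fluorescence ratio, averaged per switch-domain sequence, is each cluster's summed target-cycle Cy3 intensity over its summed buffer-cycle Cy3 intensity.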
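Also: ATP exposure 15 min at 22 °C before imaging.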

Sequence	switch fluorescence ratio
GCCGAGAAGA	1.07
AGGGTCGCAC	1.01
GGTGGCGTCA	0.937
GAATCGCGGA	0.98
AAATCACTCC	1.16
GCATGAGCTA	1.01
GGAATTAGGG	0.977
ACATCAATGA	1.02
AATAGGCCAA	1
ACTAGTATCC	0.958
TATTGGATCC	1.01
TGTTCGAACG	1.07
GAGAGCAATT	1.94
AAATCGTGAA	1
TCTCGATAGG	1.01
GTAGATTTTT	1.02
TATTTCAATA	1
ACCAAGATCT	1.03
GCACGGTCCA	1.06
GGCAGTTGGA	0.97
AGGACCATAA	1.03
ACGAACTCTT	1.18
GAACAAAAGG	1.03
GTTTTAATAA	1.01
GACCAGGATT	0.988
GTGATTGGAT	0.992

Sequence	switch fluorescence ratio
CCAGCCCCGG	1.1
GAAATACTAG	1.05
GGAGTCAAGT	1.04
TAAACGTA	1.05
CCATAGCGAA	4.07
ACGTCAGGGG	1.27
ACGTGACGTC	1.02
CGATAGTGTC	0.937
CCCGGACCTT	1.24
GTCCACTACA	1.03
CGATCGAAAC	1.03
ATTAATGGGG	0.959
CATTCACCGA	1.04
GCTGGCTATT	0.955
CAGTCAGTTT	0.978
GATTCCGAC	1.8
TATGTGCCC	1.03
GGAAACCGAA	1.18
TATTTTTTAC	1.04
ATTATAATTT	0.976
GCATTTGTTT	0.978
GCAGATGAGT	0.999
CTCACTTACC	1.29
TCCGGGGGCG	0.974
CTTGGGTATG	1.02
CATATCGGCT	0.978

Sequence	switch fluorescence ratio
AGCTTAGGAC	1.01
CATGTTTCG	1.07
TACTAATGGT	0.99
TGTCTAATAG	1.03
ATTCCCTATG	1.06
AAATGGTAGA	1.01
ACATTTTC	1.01
AGAGCATAAG	1.04
TAAAACGATG	1.03
TTTCTCCAGT	1.01
CATACGTCCA	1.14
CATGACTGTT	1.03
GACGGCGCCA	1.03
GCCTTCCATG	1.28
TTCAATTAAA	0.985
TAGATACGGT	0.975
ATTGAAATT	1.02
ATCCGCTGAC	3.83
CGGTGGGTAC	1.01
TGTTCGTGGC	1.11
ATTATATCTG	0.953
GCGCGCGATC	1.28
ACATGTCTCG	1.02
GTTGCTGTC	0.933
GAAGGGGCCA	0.986
CGGTACGCGC	1.06

Sequence	switch fluorescence ratio
CCTCTTTATT	0.993
CATCTCTGGG	1.01
AGTTTCTCAG	1.04
TTGAGACGAG	0.978
CATGCTTGTG	1.05
ATAAATCTGA	1.03
CCTTTAATGG	1.03
ATATGGCGCA	0.95
ATCTGTCTGT	1.03
CATTGCGCAC	1.42
TGACATATAA	1.21
TAGGTTGGT	0.991
TGCGTCGAGG	1.01
CTAGATTT	0.976
CGGGGACGT	0.986
ATCACGGATA	1.04
TTAATCCCGC	1.07
GTCCACTA	0.965
AACGTGCACG	1.01
GTGATTAGCT	0.995
TTAGAAATCG	0.959
AATAGCAACA	1.05
CGGGGAACT	1.04
ATTGATAACG	1.04
CATGACAAGG	1.03
GTACTACCAA	1.11

Sequence	switch fluorescence ratio
TTGTGCCCGC	1.48
ATGCGGCGGC	1.01
CCAATATTTG	0.942
AAGAGAATAC	1.14
AATTCTGTGA	0.987
GACGTCTTA	0.993
CGAGAATGCT	0.999
ACTTCCATTG	1.08
GACGATGTGC	1.5
ACATATGTCT	0.982
GTAATCCCAC	1.05
AATCCCGGGA	1.02
GGAGTTACGG	1.01
GGGAATACTC	3.48
TGAGGTGACC	0.978
CGGCGAAAAA	1
CAGCCAGGCT	1.05
GGATCTATTG	1.01
GGTCGGGGCC	0.96
TGGCTGCGCG	1
GAGCGCAAGT	1.04
GAGACTGTTT	0.984
CGAGTTAAGG	0.953
CAACTGGACG	0.991
GCCTAGGTGC	2.7
ATATCACGGT	1.02

Sequence	switch fluorescence ratio
AGAGTAATT	0.965
TTCGGCCCGG	0.997
GAGCTGGTCT	1.07
GCCTACGTTC	1.06
TTTATCGGCG	1.02
CTGTACGTCG	0.983
ATGAAAATGA	1.03
TCGTGGGTTC	0.956
GTTAGCGGTC	1.05
CGGAAGTTC	0.986
ACGCTACTAT	1.38
AGTGTGGCTA	1.02
GGGGCCCAG	1.04
ATTTAAAAGG	1.07
CGCACTTTCA	1.05
ATCACAGGA	0.999
ACTATGGCTT	1.03
TGCTGCTTCG	0.98
AAGGTACGGG	1
TAATACTCGG	1.09
TACGGCGACA	1.13
CCGGCGTAAC	5.72
TGACCGTCCG	1.08
CGTGGCAACA	0.972
CCCACTGTCT	1.01
TATCGGTCC	0.963

Sequence	switch fluorescence ratio
AAGTAGTGAA	0.998
TAGAGAGTTC	1.14
AGAAACATAT	1
AGGGCGAAGC	1.07
ACCCGGTTAT	1.03
CCAAAAGGTG	2.59
CACGCACCCC	1.42
TAATTGGATC	1.01
TAGGGGCGCT	1.01
TAATAATGAC	0.994
GTCCCTATTT	0.97
AGTAGCGTAC	1.55
GCACCAGCTG	1.06
AGATTGATTA	0.991
CTGTGGGCGT	0.973
GCTAGGGAAT	1.05
GCTCAATACA	1.26
TCCTGGCACG	1.11
ATCAGCTCCG	1.06
TGCGCGCACG	1.01
GAACCTGTG	0.992
ACGGGGGCCC	0.989
TCCAACTGGT	0.998
CGTTTTCACC	1.03
GGCCGGGATT	1.04
CACACTTCTC	1.03

Sequence	switch fluorescence ratio
GATCGCTACG	1.09
AGTCGCGGCA	1.04
TCGGGAATGT	0.967
TAGACCAGGG	1.09
CGTAGACAGC	1.01
TTTCGAGAAT	0.986
AGGAAGAAGA	0.998
TGTGCGAAGA	1
GCAGCTAAGG	1.08
AGAGCGGGGA	1.02
AAAAGTAGTG	0.98
TACGGCTACG	1
AAAAAACCTT	0.998
CATGGTGCCG	1.04
ACGTGATCTC	1.21
GCGAAGCGAA	0.985
GTTCCCGTTC	1.05
TGCCTAGAAG	1.01
GCCCCAACGA	0.961
